This is one part of the list.
Key:
Experiment in all cases: glycan array binding signal (z-score within array); higher = stronger binding
Settings in all cases: glycan notation: IUPAC condensed, linker removed
[1] = target: Fuc(a1-2)Gal
Procedure, shortened: (§1)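 The Consortium for Functional Glycomics database supplied 3228 glycan arrays, of which those lacking an available protein sequence were dropped. The binding signal, a within-array Z-score, was averaged across arrays of the same protein sequence and across linkers. Negative scores can be read as non-binding.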

[2] = target: Fuc(a1-2)Gal(b1-3)GalNAc
Procedure, shortened: as §1

[3] = target: Fuc(a1-2)Gal(b1-3)GalNAc(b1-3)Gal
Procedure, shortened: as §1

[4] = target: Fuc(a1-2)Gal(b1-3)GalNAc(b1-3)Gal(a1-4)Gal(b1-4)Glc
Procedure, shortened: as §1

[5] = target: Fuc(a1-2)Gal(b1-3)GalNAc(b1-4)[Neu5Ac(a2-3)]Gal(b1-4)Glc
Procedure, shortened: as §1

[6] = target: Fuc(a1-2)Gal(b1-3)GlcNAc
Procedure, shortened: as §1

[7] = target: Fuc(a1-2)Gal(b1-3)GlcNAc(b1-3)Gal(b1-4)Glc
Procedure, shortened: as §1

[8] = target: Fuc(a1-2)Gal(b1-3)[Fuc(a1-4)]GlcNAc
Procedure, shortened: as §1

[9] = target: Fuc(a1-2)Gal(b1-4)Glc
Procedure, shortened: as §1

[10] = target: Fuc(a1-2)Gal(b1-4)GlcNAc
Procedure, shortened: as §1

[11] = target: Fuc(a1-2)Gal(b1-4)GlcNAc(b1-3)Gal(b1-4)GlcNAc
Procedure, shortened: as §1

[12] = target: Fuc(a1-2)Gal(b1-4)GlcNAc(b1-3)Gal(b1-4)GlcNAc(b1-3)Gal(b1-4)GlcNAc
Procedure, shortened: as §1

[13] = target: Fuc(a1-2)Gal(b1-4)[Fuc(a1-3)]GlcNAc
Procedure, shortened: as §1

[14] = target: Fuc(a1-2)Gal(b1-4)[Fuc(a1-3)]GlcNAc(b1-3)Gal(b1-4)[Fuc(a1-3)]GlcNAc
Procedure, shortened: as §1

[15] = target: Fuc(a1-2)Gal(b1-4)[Fuc(a1-3)]GlcNAc(b1-3)Gal(b1-4)[Fuc(a1-3)]GlcNAc(b1-3)Gal(b1-4)[Fuc(a1-3)]GlcNAc
Procedure, shortened: as §1

[16] = target: Fuc(a1-2)GlcNAc
Procedure, shortened: as §1

[17] = target: Fuc(a1-2)[Gal(a1-3)]Gal
Procedure, shortened: as §1

[18] = target: Fuc(a1-2)[Gal(a1-3)]Gal(b1-3)GlcNAc
Procedure, shortened: as §1

[19] = target: Fuc(a1-2)[Gal(a1-3)]Gal(b1-4)Glc
Procedure, shortened: as §1

[20] = target: Fuc(a1-2)[Gal(a1-3)]Gal(b1-4)GlcNAc
Procedure, shortened: as §1

[21] = target: Fuc(a1-2)[Gal(a1-3)]Gal(b1-4)[Fuc(a1-3)]GlcNAc
Procedure, shortened: as §1

[22] = target: Fuc(a1-2)[Gal(a1-4)]Gal(b1-4)GlcNAc
Procedure, shortened: as §1

[23] = target: Fuc(a1-2)[GalNAc(a1-3)]Gal
Procedure, shortened: as §1

[24] = target: Fuc(a1-2)[GalNAc(a1-3)]Gal(b1-3)GlcNAc
Procedure, shortened: as §1

[25] = target: Fuc(a1-2)[GalNAc(a1-3)]Gal(b1-4)Glc
Procedure, shortened: as §1

[26] = target: Fuc(a1-2)[GalNAc(a1-3)]Gal(b1-4)GlcNAc
Procedure, shortened: as §1

[27] = target: Fuc(a1-2)[GalNAc(a1-3)]Gal(b1-4)[Fuc(a1-3)]GlcNAc
Procedure, shortened: as §1

[28] = target: Fuc(a1-2)[GalNAc(a1-4)]Gal(b1-4)GlcNAc
Procedure, shortened: as §1

[29] = target: Fuc(a1-2)[GalNAc(b1-3)]Gal
Procedure, shortened: as §1

[30] = target: Fuc(a1-3)GlcNAc
Procedure, shortened: as §1

[31] = target: Fuc(a1-3)[Gal(b1-4)]GlcNAc
Procedure, shortened: as §1

[32] = target: Fuc(a1-3)[Gal(b1-4)]GlcNAc(b1-4)Gal(b1-4)[Fuc(a1-3)]GlcNAc
Procedure, shortened: as §1

[33] = target: Fuc(a1-3)[Gal(b1-4)]GlcNAc(b1-4)Gal(b1-4)[Fuc(a1-3)]GlcNAc(b1-4)Gal(b1-4)[Fuc(a1-3)]GlcNAc
Procedure, shortened: as §1

[34] = target: Fuc(a1-3)[Gal3S(b1-4)]GlcNAc
Procedure, shortened: as §1

[35] = target: Fuc(a1-3)[GalNAc(b1-4)]GlcNAc
Procedure, shortened: as §1

[36] = target: Fuc(a1-4)GlcNAc
Procedure, shortened: as §1

[37] = target: Fuc(b1-3)GlcNAc
Procedure, shortened: as §1

[38] = target: Gal(a1-2)Gal
Procedure, shortened: as §1

[39] = target: Gal(a1-3)Gal
Procedure, shortened: as §1

[40] = target: Gal(a1-3)Gal(b1-3)GlcNAc
Procedure, shortened: as §1

[41] = target: Gal(a1-3)Gal(b1-4)Glc
Procedure, shortened: as §1

[42] = target: Gal(a1-3)Gal(b1-4)GlcNAc
Procedure, shortened: as §1

[43] = target: Gal(a1-3)Gal(b1-4)[Fuc(a1-3)]GlcNAc
Procedure, shortened: as §1

[44] = target: Gal(a1-3)GalNAc
Procedure, shortened: as §1

[45] = target: Gal(a1-3)[Gal(a1-4)]Gal(b1-4)GlcNAc
Procedure, shortened: as §1

B1: CV-IIL (Chromobacterium violaceum) (protein)
chain: AQQGVFTLPARINFGVTVLVNSAATQHVEIFVDNEPRAAFSGVGTGDNNLGTKVINSGSGNVRVQITANGRQSDLVSSQLVLANKLNLAVVGSEDGTDMDYNDSIVILNWPLG
For B1, the “glycan array binding signal (z-score)” value [1] was 2.57, the “glycan array binding signal (z-score)” value [2] was 2.07 and the “glycan array binding signal (z-score)” value [3] was -0.367. For the same binder, the “glycan array binding signal (z-score)” value [4] was 1.26, the “glycan array binding signal (z-score)” value [5] was 1.33 and the “glycan array binding signal (z-score)” value [6] was 2.67. For the same binder, the “glycan array binding signal (z-score)” value [7] was 2.22, the “glycan array binding signal (z-score)” value [8] was 2.2 and the “glycan array binding signal (z-score)” value [9] was 2.58. For the same binder, the “glycan array binding signal (z-score)” value [10] was 2.98, the “glycan array binding signal (z-score)” value [11] was 2.62 and the “glycan array binding signal (z-score)” value [12] was 2.31. The “glycan array binding signal (z-score)” value [13] was 2.21, the “glycan array binding signal (z-score)” value [14] was 2.16 and the “glycan array binding signal (z-score)” value [15] was 1.65. The “glycan array binding signal (z-score)” value [16] was 1.5, the “glycan array binding signal (z-score)” value [17] was -0.242 and the “glycan array binding signal (z-score)” value [18] was -0.474. The “glycan array binding signal (z-score)” value [19] was -0.393, the “glycan array binding signal (z-score)” value [20] was -0.476 and the “glycan array binding signal (z-score)” value [21] was -0.245. The “glycan array binding signal (z-score)” value [22] was 1.68, the “glycan array binding signal (z-score)” value [23] was -0.456 and the “glycan array binding signal (z-score)” value [24] was -0.458. For the same binder, the “glycan array binding signal (z-score)” value [25] was -0.406, the “glycan array binding signal (z-score)” value [26] was -0.462 and the “glycan array binding signal (z-score)” value [27] was 1.05. For the same binder, the “glycan array binding signal (z-score)” value [28] was 1.2, the “glycan array binding signal (z-score)” value [29] was -0.486 and the “glycan array binding signal (z-score)” value [30] was 0.447. The “glycan array binding signal (z-score)” value [31] was -0.001, the “glycan array binding signal (z-score)” value [32] was -0.118 and the “glycan array binding signal (z-score)” value [33] was 0.341. The “glycan array binding signal (z-score)” value [34] was -0.189, the “glycan array binding signal (z-score)” value [35] was -0.076 and the “glycan array binding signal (z-score)” value [36] was 1.12. For the same binder, the “glycan array binding signal (z-score)” value [37] was -0.389, the “glycan array binding signal (z-score)” value [38] was -0.5 and the “glycan array binding signal (z-score)” value [39] was -0.5. The “glycan array binding signal (z-score)” value [40] was -0.496, the “glycan array binding signal (z-score)” value [41] was -0.489 and the “glycan array binding signal (z-score)” value [42] was -0.501. For the same binder, the “glycan array binding signal (z-score)” value [43] was -0.214, the “glycan array binding signal (z-score)” value [44] was -0.501 and the “glycan array binding signal (z-score)” value [45] was -0.501.

From the supplement of paper PMC8728848
